In publication PMC10668032:
This is one part of the list. At the low end of the ranking, values are background and their order means little.

Each sequence was assayed against SIX1 homeodomain (reference allele) (UniProt Q15475) (assay: universal protein binding microarray). Conditions: Universal all-10-mer PBM (8x60K, AMADID 030236), 300 nM GST-tagged protein, Alexa Fluor 488 anti-GST; buffer, salt, pH and temperature not stated; high values mean tight binding; most listed sequences are background and not binding sites; double strand, one strand shown.

Sequence | binding signal
TACTGTAA | 0.121 E-score
TCTACCAA | -0.0219 E-score
CGTTACCA | 0.132 E-score
GTCAGGCA | -0.159 E-score
CTCAATGA | -0.0264 E-score
AGGCGTAA | -0.149 E-score
GTAGACTA | -0.0676 E-score
CCCAAACA | 0.0132 E-score
CAAATAAA | -0.155 E-score
CTGTCGCA | -0.158 E-score
GTTTCTCA | -0.184 E-score
ATCCTCCA | 0.297 E-score
AGCATCCT | -0.0896 E-score
CGGCGGAC | 0.0235 E-score
CGTCCACG | -0.106 E-score
GATCGGCA | 0.211 E-score
GAACGAAC | -0.0749 E-score
ATAGTCCG | -0.0202 E-score
AAGGACAG | -0.168 E-score
AACAGACG | -0.124 E-score
ACATGCGA | 0.102 E-score
CTACTGAC | -0.0954 E-score

Sequence | binding signal
AACCGACA | 0.0815 E-score
ACCCCCAT | 0.0992 E-score
CAAGCAGG | -0.0694 E-score
ACGATCTA | 0.164 E-score
AACGTCGA | -0.168 E-score
CGAAGAAA | -0.199 E-score
CATCGAAG | 0.178 E-score
ATAACTCG | -0.0821 E-score
CAGTTTGC | -0.16 E-score
CAAGGCGG | -0.119 E-score
CGGCCTGC | -0.16 E-score
ATCAGCGG | 0.171 E-score
AAAGGCCT | -0.37 E-score
CTAGTGGC | -0.185 E-score
GACTGCGC | -0.078 E-score
CATACGGA | 0.178 E-score
CCATCGCC | 0.0549 E-score
CACTTGAC | -0.0517 E-score
GATCTAAC | 0.149 E-score
AAAATTAG | -0.216 E-score
CGGTGGAG | -0.0648 E-score
GGGTCGTA | 0.141 E-score

Sequence | binding signal
CGCTTGAG | -0.169 E-score
CTACCACA | -0.143 E-score
CGTTGGAA | -0.0203 E-score
CAACTTCC | -0.155 E-score
GCCTAAAA | -0.262 E-score
ACCACTAC | -0.0964 E-score
ATGTAAAG | -0.158 E-score
ACTGCCAC | -0.182 E-score
AAATTGTA | -0.207 E-score
GGCCGGTA | 0.0377 E-score
CCCGCGAG | 0.206 E-score
AATATCCC | 0.378 E-score
ACATAAAT | -0.12 E-score
ACCTGCCG | -0.101 E-score
CATAGACG | -0.0184 E-score
CAGTCCAC | -0.228 E-score
GGTTATCA | 0.21 E-score
AACATCTC | 0.0198 E-score
ATGTGATA | 0.392 E-score
AAAAGATG | -0.201 E-score
AACTTTGC | -0.267 E-score
AGTGTGTG | 0.123 E-score

Sequence | binding signal
ATTGTCAG | -0.0991 E-score
ACATTGTG | -0.121 E-score
ACGTCCAC | -0.311 E-score
CGTGTACA | 0.114 E-score
CCAGGGCG | -0.0407 E-score
GTCAAAAA | -0.085 E-score
AGCCGGAC | 0.0596 E-score
AATAGGGC | -0.0973 E-score
CGACCCAA | -0.0483 E-score
CCATAATC | 0.119 E-score
ACTCTGTG | 0.0939 E-score
AACTCCAC | -0.119 E-score
AGTGCTGC | -0.279 E-score
AGAGGTAG | 0.0353 E-score
AAGTCTTA | -0.127 E-score
CACTGACC | -0.16 E-score
AGCCTAAT | -0.122 E-score
CCTAGCTA | 0.15 E-score
AACGATAC | 0.435 E-score
ATACTTGG | 0.199 E-score
AACTGGAC | -0.146 E-score
AACAACCC | -0.0853 E-score

Sequence | binding signal
CCGAGGAC | 0.055 E-score
GCTTCCCC | -0.048 E-score
CTACCTAG | 0.0181 E-score
GACAATGA | -0.173 E-score
ATCGAACA | 0.167 E-score
TATGATCA | 0.25 E-score
GCACCAGA | -0.0402 E-score
CCACCCGG | 0.0085 E-score
AATACGAT | 0.338 E-score
CTCGACGC | -0.0621 E-score
CGAGTGGA | 0.135 E-score
ACACCGCT | 0.224 E-score
TCCTCAAA | -0.178 E-score
AGGTGACC | -0.0897 E-score
ATCTTGAG | 0.0468 E-score
CTGTCTTA | -0.0279 E-score
AAATGGGG | -0.166 E-score
CAAGTAAG | -0.101 E-score
GAGAGACC | -0.0608 E-score
CCTAACGA | 0.0278 E-score
GTCCTCGA | -0.0465 E-score
